The source gives many values for each of these; only a part stands here.
Experiment: xn = mol fraction of the nth substance listed
Settings: for viscosity: x2 = 0.007156

CCCCCCCCCCCCCCCC[N+](C)(C)C.[Br-] + NCC(=O)O + O
viscosity [mPa·s], 101 kPa
Settings	x1 = 3.5e-06	x1 = 8.29e-06	x1 = 1.143e-05	x1 = 1.456e-05	x1 = 1.751e-05	x1 = 2.119e-05	x1 = 2.359e-05	x1 = 2.783e-05	x1 = 3.206e-05	x1 = 3.612e-05
308.15 K	0.756	0.76	0.761	0.764	0.765	0.769	0.775	0.78	0.786	0.791
313.15 K	0.685	0.687	0.69	0.692	0.695	0.697	0.7	0.706	0.71	0.714

CCCCCCCCCCCCCCCC[n+]1ccccc1.[Cl-] + NCC(=O)O + O
308.15 K, 101 kPa
Settings	electrical conductivity [S/m]
x2 = 0.0002, x1 = 6.725e-05	0.00423
x2 = 0.0002, x1 = 7.519e-05	0.00448
x2 = 0.0002, x1 = 8.294e-05	0.00469
x2 = 0.0002, x1 = 9.033e-05	0.00489
x2 = 0.0002, x1 = 9.736e-05	0.00508
x2 = 0.0002, x1 = 0.0001042	0.00523
x2 = 0.0002, x1 = 0.0001107	0.0054
x2 = 0.0002, x1 = 0.000117	0.00555
x2 = 0.0003638, x1 = 4.871e-05	0.00395
x2 = 0.0003638, x1 = 5.051e-05	0.00402
x2 = 0.0003638, x1 = 5.935e-05	0.0043
x2 = 0.0003638, x1 = 6.765e-05	0.00457
x2 = 0.0003638, x1 = 7.577e-05	0.00479
x2 = 0.0003638, x1 = 8.352e-05	0.00501
x2 = 0.0003638, x1 = 9.092e-05	0.00521
x2 = 0.0003638, x1 = 9.813e-05	0.00539
x2 = 0.0003638, x1 = 0.000105	0.00555
x2 = 0.0003638, x1 = 0.0001115	0.00572
x2 = 0.0003638, x1 = 0.0001178	0.00587
x2 = 0.0003639, x1 = 5.4e-07	0.000474
x2 = 0.0003639, x1 = 9e-07	0.000597
x2 = 0.0003639, x1 = 1.62e-06	0.000695
x2 = 0.0003639, x1 = 2.35e-06	0.000778
x2 = 0.0003639, x1 = 2.89e-06	0.0009
x2 = 0.0003639, x1 = 3.79e-06	0.000957
x2 = 0.0003639, x1 = 4.51e-06	0.001121
x2 = 0.0003639, x1 = 5.59e-06	0.00128
x2 = 0.0003639, x1 = 6.68e-06	0.001413
x2 = 0.0003639, x1 = 7.76e-06	0.00156
x2 = 0.0003639, x1 = 8.84e-06	0.001712
x2 = 0.0003639, x1 = 9.92e-06	0.001841
x2 = 0.0003639, x1 = 1.1e-05	0.00198
x2 = 0.0003639, x1 = 1.317e-05	0.00219
x2 = 0.0003639, x1 = 1.533e-05	0.00237
x2 = 0.0003639, x1 = 1.75e-05	0.00241
x2 = 0.0003639, x1 = 1.966e-05	0.00265
x2 = 0.0003639, x1 = 2.165e-05	0.00277
x2 = 0.0003639, x1 = 2.363e-05	0.00289
x2 = 0.0003639, x1 = 2.58e-05	0.00299
x2 = 0.0003639, x1 = 2.977e-05	0.00318
x2 = 0.0003639, x1 = 3.374e-05	0.00337
x2 = 0.0003639, x1 = 3.752e-05	0.00352
x2 = 0.0003639, x1 = 4.131e-05	0.00368
x2 = 0.0003639, x1 = 4.51e-05	0.00383
x2 = 0.0009181, x1 = 2.404e-05	0.00263
x2 = 0.0009181, x1 = 2.602e-05	0.00275
x2 = 0.0009181, x1 = 3.018e-05	0.00296
x2 = 0.0009181, x1 = 3.416e-05	0.00313
x2 = 0.0009181, x1 = 3.813e-05	0.00325
x2 = 0.0009181, x1 = 4.193e-05	0.00343
x2 = 0.0009181, x1 = 4.572e-05	0.00357
x2 = 0.0009181, x1 = 4.934e-05	0.00371
x2 = 0.0009181, x1 = 5.114e-05	0.00378
x2 = 0.0009181, x1 = 6.018e-05	0.00405
x2 = 0.0009181, x1 = 6.867e-05	0.00435
x2 = 0.0009181, x1 = 7.68e-05	0.00458
x2 = 0.0009181, x1 = 8.457e-05	0.0048
x2 = 0.0009181, x1 = 9.216e-05	0.005
x2 = 0.0009181, x1 = 9.939e-05	0.00518
x2 = 0.0009181, x1 = 0.0001062	0.00535
x2 = 0.0009181, x1 = 0.0001129	0.00551
x2 = 0.0009181, x1 = 0.0001194	0.00565
x2 = 0.0009182, x1 = 5.4e-07	0.000272
x2 = 0.0009182, x1 = 9e-07	0.000333
x2 = 0.0009182, x1 = 1.63e-06	0.000398
x2 = 0.0009182, x1 = 2.35e-06	0.000428
x2 = 0.0009182, x1 = 2.89e-06	0.000525
x2 = 0.0009182, x1 = 3.8e-06	0.000653
x2 = 0.0009182, x1 = 4.52e-06	0.00076
x2 = 0.0009182, x1 = 5.6e-06	0.000956
x2 = 0.0009182, x1 = 6.87e-06	0.00108
x2 = 0.0009182, x1 = 7.95e-06	0.00119
x2 = 0.0009182, x1 = 9.04e-06	0.00138
x2 = 0.0009182, x1 = 1.012e-05	0.00156
x2 = 0.0009182, x1 = 1.12e-05	0.00166
x2 = 0.0009182, x1 = 1.337e-05	0.00187
x2 = 0.0009182, x1 = 1.554e-05	0.00212
x2 = 0.0009182, x1 = 1.771e-05	0.0023
x2 = 0.0009182, x1 = 1.988e-05	0.00245
x2 = 0.0009182, x1 = 2.187e-05	0.00255
x2 = 0.001802, x1 = 5.4e-07	0.000414
x2 = 0.001802, x1 = 9.1e-07	0.000474
x2 = 0.001802, x1 = 1.63e-06	0.000593
x2 = 0.001802, x1 = 2.36e-06	0.000702
x2 = 0.001802, x1 = 2.9e-06	0.000764
x2 = 0.001802, x1 = 3.81e-06	0.000892
x2 = 0.001802, x1 = 4.53e-06	0.000951
x2 = 0.001802, x1 = 5.62e-06	0.001112
x2 = 0.001802, x1 = 6.89e-06	0.00128
x2 = 0.001802, x1 = 7.97e-06	0.00138
x2 = 0.001802, x1 = 9.06e-06	0.0015
x2 = 0.001802, x1 = 1.015e-05	0.00166
x2 = 0.001802, x1 = 1.124e-05	0.00176
x2 = 0.001802, x1 = 1.341e-05	0.00201
x2 = 0.001802, x1 = 1.559e-05	0.00222
x2 = 0.001802, x1 = 1.776e-05	0.00241
x2 = 0.001802, x1 = 1.993e-05	0.00252
x2 = 0.001802, x1 = 2.193e-05	0.00268
x2 = 0.001802, x1 = 2.41e-05	0.0028
x2 = 0.001802, x1 = 2.61e-05	0.0029
x2 = 0.001802, x1 = 3.026e-05	0.00309
x2 = 0.001802, x1 = 3.425e-05	0.00326
x2 = 0.001802, x1 = 3.824e-05	0.00342
x2 = 0.001802, x1 = 4.204e-05	0.00356
x2 = 0.001802, x1 = 4.585e-05	0.0037
x2 = 0.001802, x1 = 4.947e-05	0.00384
x2 = 0.001802, x1 = 5.128e-05	0.00392
x2 = 0.001802, x1 = 6.035e-05	0.0042
x2 = 0.001802, x1 = 6.886e-05	0.00448
x2 = 0.001802, x1 = 7.702e-05	0.00472
x2 = 0.001802, x1 = 8.481e-05	0.00494
x2 = 0.001802, x1 = 9.242e-05	0.00513
x2 = 0.001802, x1 = 9.967e-05	0.00531
x2 = 0.001802, x1 = 0.0001066	0.00547
x2 = 0.001802, x1 = 0.0001133	0.00567
x2 = 0.001802, x1 = 0.0001198	0.00577

CCCCCCCC[n+]1ccccc1.[Br-] + NCC(=O)O + O
100 kPa
Settings	electrical conductivity [S/m]
288.15 K, x2 = 0.001787, x1 = 0.006289	1.24
288.15 K, x2 = 0.001787, x1 = 0.006476	1.26
288.15 K, x2 = 0.001788, x1 = 0.00597	1.21
288.15 K, x2 = 0.001789, x1 = 0.005259	1.15
288.15 K, x2 = 0.001789, x1 = 0.005628	1.18
288.15 K, x2 = 0.00179, x1 = 0.004853	1.1
288.15 K, x2 = 0.001791, x1 = 0.004411	1.05
288.15 K, x2 = 0.001792, x1 = 0.003921	0.977
293.15 K, x2 = 0.001787, x1 = 0.006281	1.41
293.15 K, x2 = 0.001787, x1 = 0.006471	1.43
293.15 K, x2 = 0.001788, x1 = 0.005965	1.38
293.15 K, x2 = 0.001789, x1 = 0.005253	1.3
293.15 K, x2 = 0.001789, x1 = 0.005622	1.34
293.15 K, x2 = 0.00179, x1 = 0.00485	1.25
293.15 K, x2 = 0.001791, x1 = 0.004406	1.18
293.15 K, x2 = 0.001792, x1 = 0.003917	1.11
298.15 K, x2 = 0.001787, x1 = 0.006274	1.6
298.15 K, x2 = 0.001787, x1 = 0.00646	1.62
298.15 K, x2 = 0.001788, x1 = 0.005957	1.55
298.15 K, x2 = 0.001789, x1 = 0.005246	1.46
298.15 K, x2 = 0.001789, x1 = 0.005614	1.51
298.15 K, x2 = 0.00179, x1 = 0.004842	1.41
298.15 K, x2 = 0.001791, x1 = 0.004401	1.33
298.15 K, x2 = 0.001792, x1 = 0.003912	1.24
303.15 K, x2 = 0.001787, x1 = 0.006265	1.79
303.15 K, x2 = 0.001787, x1 = 0.006451	1.81
303.15 K, x2 = 0.001788, x1 = 0.005948	1.74
303.15 K, x2 = 0.001789, x1 = 0.005239	1.64
303.15 K, x2 = 0.001789, x1 = 0.005606	1.69
303.15 K, x2 = 0.00179, x1 = 0.004835	1.57
303.15 K, x2 = 0.001791, x1 = 0.004395	1.48
303.15 K, x2 = 0.001792, x1 = 0.003906	1.38
308.15 K, x2 = 0.001787, x1 = 0.006441	2.06
308.15 K, x2 = 0.001788, x1 = 0.005938	1.96
308.15 K, x2 = 0.001788, x1 = 0.006255	2.03
308.15 K, x2 = 0.001789, x1 = 0.00523	1.82
308.15 K, x2 = 0.001789, x1 = 0.005597	1.89
308.15 K, x2 = 0.00179, x1 = 0.004828	1.73
308.15 K, x2 = 0.001791, x1 = 0.004386	1.64
308.15 K, x2 = 0.001792, x1 = 0.003901	1.51

From the CheMixHub ionic liquid set
